# PubChem BioAssay (Tox21)
# The shares of active, inactive and inconclusive entries below differ from those in the screen. Where a call stands in place of a potency, no number is given. A potency beside an inconclusive call is a rough fit, not a confirmed value. The source made the active and inactive calls. Unless noted, calls follow the shape of the dose curve; as a rule, active = well fitted cell-killing curve with a large enough effect in the repeat runs; inconclusive = weak or mixed curves, or effect the other way; inactive = flat fitted curve, though single readings scatter.
# Experiment: qHTS assay to identify small molecule antagonists of the estrogen receptor alpha (ER-alpha) signaling pathway using the BG1 cell line (AID 743080; calls by dose curve;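 also: BG1 cells stimulated with 17beta-estradiol alongside compound; nearly all actives have a fitted effect of over 25% in size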)
# Conditions: BG1Luc4E2 ERE-luciferase antagonist mode, luminescence; series mostly up to 70.3 µM
# In short: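 Readout is ONE-Glo luminescence, taken 30 min at room temperature after reagent addition, preceded by a CellTiter-Fluor viability read; BG1-Luc-4E2 cells had received compound and 17beta-estradiol for 21.5 h at 37 C.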
# Potency is read from the fitted curve at half-maximal effect; tags tell the direction and shape of the fitted curve.
row,Structure (SMILES),Potency
1,CCCCN(CCCC)N=O,inactive
2,S=C=Nc1ccccc1,inactive
3,CC(=O)CCc1ccc2c(c1)OCO2,inactive
4,N#C/C=C/C#N,"inconclusive: 57 µM [rising, partial curve]"
5,CCCCN(CCCC)C(=S)S,inactive

# Experiment: qHTS assay to identify small molecule antagonists of the estrogen receptor alpha (ER-alpha) signaling pathway using the BG1 cell line - cell viability counter screen (AID 743081);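 also: compound given together with 17beta-estradiol as the ER stimulus; nearly all actives have a fitted effect of over 45% in size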
# Conditions: BG1Luc4E2 viability, CellTiter-Fluor, 22 h; series mostly up to 70.3 µM
row,Structure (SMILES),Potency
1,Nc1nc(N)c(N)c(N)n1,"inconclusive: 68.9 µM [rising, single point]"
2,O=[N+]([O-])O,"inconclusive: 77 µM [cytotoxic, partial curve, poor fit]"
3,Nc1cccc2ccccc12,"inconclusive: 69 µM [cytotoxic, partial curve, poor fit]"
4,Nc1ccccc1,inactive
5,CC1CN1 (configuration not stated),inactive
6,CCNCC,inactive
7,Cn1c(N)nc2c3cccnc3ccc21,"inconclusive: 58.1 µM [cytotoxic, partial curve]"
